Laboratory results from paper PMC9911399, “Two distinct binding modes provide the RNA-binding protein RbFox with extraordinary sequence specificity”.
Changes are numbered by the printed parent chain; changes in the protein carry UniProt numbers. The list shows a part of the results.

T1: RBFOX1 RRM RbFoxmut (Fox-RRM*) (Homo sapiens, UniProt Q9NWB1 109-208, R118D;E147R;N151S;E152T)
T1 sequence: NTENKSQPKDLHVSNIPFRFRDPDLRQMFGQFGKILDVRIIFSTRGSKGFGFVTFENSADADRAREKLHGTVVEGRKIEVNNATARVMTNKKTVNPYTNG

B1: CGGGUAG (DNA:RNA)
RNA: GGGAGACCGGAAUUCAGAUUGUCCCGGGUAGUUAAAUCCCGUCGUAGCCACCA
DNA 1: CAATCTGAATTCCGGTCTCCC
DNA 2: TGGTGGCTACGACGGGATT
B2: GCAUUGG (DNA:RNA)
RNA: B1 RNA with C25G, G26C, G27A, G28U, A30G
DNA 1: CAATCTGAATTCCGGTCTCCC
DNA 2: TGGTGGCTACGACGGGATT
B3: CCAGGCC (DNA:RNA)
RNA: B1 RNA with G26C, G27A, U29G, A30C, G31C
DNA 1: CAATCTGAATTCCGGTCTCCC
DNA 2: TGGTGGCTACGACGGGATT
B4: AGGACCA (DNA:RNA)
RNA: B1 RNA with C25A, G28A, U29C, A30C, G31A
DNA 1: CAATCTGAATTCCGGTCTCCC
DNA 2: TGGTGGCTACGACGGGATT
B5: UUGCUUU (DNA:RNA)
RNA: B1 RNA with C25U, G26U, G28C, A30U, G31U
DNA 1: CAATCTGAATTCCGGTCTCCC
DNA 2: TGGTGGCTACGACGGGATT
B6: GUUGAGG (DNA:RNA)
RNA: B1 RNA with C25G, G26U, G27U, U29A, A30G
DNA 1: CAATCTGAATTCCGGTCTCCC
DNA 2: TGGTGGCTACGACGGGATT
B7: AGGCGGU (DNA:RNA)
RNA: B1 RNA with C25A, G28C, U29G, A30G, G31U
DNA 1: CAATCTGAATTCCGGTCTCCC
DNA 2: TGGTGGCTACGACGGGATT
B8: CCUAUCC (DNA:RNA)
RNA: B1 RNA with G26C, G27U, G28A, A30C, G31C
DNA 1: CAATCTGAATTCCGGTCTCCC
DNA 2: TGGTGGCTACGACGGGATT
B9: UAUAUAC (DNA:RNA)
RNA: B1 RNA with C25U, G26A, G27U, G28A, G31C
DNA 1: CAATCTGAATTCCGGTCTCCC
DNA 2: TGGTGGCTACGACGGGATT
B10: UCCGACG (DNA:RNA)
RNA: B1 RNA with C25U, G26C, G27C, U29A, A30C
DNA 1: CAATCTGAATTCCGGTCTCCC
DNA 2: TGGTGGCTACGACGGGATT
B11: CAAGCAC (DNA:RNA)
RNA: B1 RNA with G26A, G27A, U29C, G31C
DNA 1: CAATCTGAATTCCGGTCTCCC
DNA 2: TGGTGGCTACGACGGGATT
B12: GCGGUGG (DNA:RNA)
RNA: B1 RNA with C25G, G26C, A30G
DNA 1: CAATCTGAATTCCGGTCTCCC
DNA 2: TGGTGGCTACGACGGGATT
B13: UCUGCUA (DNA:RNA)
RNA: B1 RNA with C25U, G26C, G27U, U29C, A30U, G31A
DNA 1: CAATCTGAATTCCGGTCTCCC
DNA 2: TGGTGGCTACGACGGGATT
B14: ACGUAAU (DNA:RNA)
RNA: B1 RNA with C25A, G26C, G28U, U29A, G31U
DNA 1: CAATCTGAATTCCGGTCTCCC
DNA 2: TGGTGGCTACGACGGGATT
B15: GAAUAGG (DNA:RNA)
RNA: B1 RNA with C25G, G26A, G27A, G28U, U29A, A30G
DNA 1: CAATCTGAATTCCGGTCTCCC
DNA 2: TGGTGGCTACGACGGGATT
B16: AUUAGUC (DNA:RNA)
RNA: GGGAGACCGGAAUUCAGAUUGUCCAUUAGUCUUAAAUCCCGUCGUAGCCACCA
DNA 1: CAATCTGAATTCCGGTCTCCC
DNA 2: TGGTGGCTACGACGGGATT
B17: GUUUCGG (DNA:RNA)
RNA: B16 RNA with A25G, A28U, G29C, U30G, C31G
DNA 1: CAATCTGAATTCCGGTCTCCC
DNA 2: TGGTGGCTACGACGGGATT
B18: GCGAUCC (DNA:RNA)
RNA: B16 RNA with A25G, U26C, U27G, G29U, U30C
DNA 1: CAATCTGAATTCCGGTCTCCC
DNA 2: TGGTGGCTACGACGGGATT
B19: CGGUGGU (DNA:RNA)
RNA: B1 RNA with G28U, U29G, A30G, G31U
DNA 1: CAATCTGAATTCCGGTCTCCC
DNA 2: TGGTGGCTACGACGGGATT
B20: AGCUUGA (DNA:RNA)
RNA: B1 RNA with C25A, G27C, G28U, A30G, G31A
DNA 1: CAATCTGAATTCCGGTCTCCC
DNA 2: TGGTGGCTACGACGGGATT
B21: UAAUCCU (DNA:RNA)
RNA: GGGAGACCGGAAUUCAGAUUGUCCUAAUCCUUUAAAUCCCGUCGUAGCCACCA
DNA 1: CAATCTGAATTCCGGTCTCCC
DNA 2: TGGTGGCTACGACGGGATT
B22: CCACCAG (DNA:RNA)
RNA: B1 RNA with G26C, G27A, G28C, U29C
DNA 1: CAATCTGAATTCCGGTCTCCC
DNA 2: TGGTGGCTACGACGGGATT
B23: GUGAUUU (DNA:RNA)
RNA: B16 RNA with A25G, U27G, G29U, C31U
DNA 1: CAATCTGAATTCCGGTCTCCC
DNA 2: TGGTGGCTACGACGGGATT
B24: UGUUCCC (DNA:RNA)
RNA: B21 RNA with A26G, A27U, U31C
DNA 1: CAATCTGAATTCCGGTCTCCC
DNA 2: TGGTGGCTACGACGGGATT
B25: UUGGUCG (DNA:RNA)
RNA: B1 RNA with C25U, G26U, A30C
DNA 1: CAATCTGAATTCCGGTCTCCC
DNA 2: TGGTGGCTACGACGGGATT
B26: AAGCCUG (DNA:RNA)
RNA: B16 RNA with U26A, U27G, A28C, G29C, C31G
DNA 1: CAATCTGAATTCCGGTCTCCC
DNA 2: TGGTGGCTACGACGGGATT
B27: CUCGCAG (DNA:RNA)
RNA: B1 RNA with G26U, G27C, U29C
DNA 1: CAATCTGAATTCCGGTCTCCC
DNA 2: TGGTGGCTACGACGGGATT
B28: GACCCCU (DNA:RNA)
RNA: B21 RNA with U25G, A27C, U28C
DNA 1: CAATCTGAATTCCGGTCTCCC
DNA 2: TGGTGGCTACGACGGGATT
B29: CCAUUAU (DNA:RNA)
RNA: B1 RNA with G26C, G27A, G28U, G31U
DNA 1: CAATCTGAATTCCGGTCTCCC
DNA 2: TGGTGGCTACGACGGGATT
B30: UUUGUCU (DNA:RNA)
RNA: B21 RNA with A26U, A27U, U28G, C29U
DNA 1: CAATCTGAATTCCGGTCTCCC
DNA 2: TGGTGGCTACGACGGGATT
B31: AAUUGUA (DNA:RNA)
RNA: B16 RNA with U26A, A28U, C31A
DNA 1: CAATCTGAATTCCGGTCTCCC
DNA 2: TGGTGGCTACGACGGGATT

target: T1, RBFOX1 RRM RbFoxmut (Fox-RRM*); experiment: EMSA; HiTS-Eq, 1 nM pool, 10 min; buffer printed only for the single-RNA assays: 10 mM Tris pH 7.5, 150 mM NaCl, 3.4 mM EDTA, 0.001% NP-40, 30 C; settings: tags: His6 N-terminal (pET28a); label: 5' 32P
How it was run: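 Relative association constants, normalised to the cognate motif, were derived by comparing read counts of each RNA species with those of the control reaction. The RNA sequenced was the free fraction, separated by 8% native PAGE after a 10 min equilibration in 50 µL of 1 nM 5′-radiolabelled RNA (7 randomized nucleotides) with increasing concentrations of purified wild-type or mutant RbFox RRM.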

In order of rising binding signal:
1. B28  0.0538 KA relative to UGCAUGU
2. B18  0.058 KA relative to UGCAUGU
3. B24  0.0599 KA relative to UGCAUGU
4. B21  0.0621 KA relative to UGCAUGU
5. B11  0.0665 KA relative to UGCAUGU
6. B4  0.0698 KA relative to UGCAUGU
7. B8  0.0723 KA relative to UGCAUGU
8. B17  0.0724 KA relative to UGCAUGU
9. B16  0.0751 KA relative to UGCAUGU
10. B30  0.0828 KA relative to UGCAUGU
11. B15  0.0846 KA relative to UGCAUGU
12. B26  0.0848 KA relative to UGCAUGU
13. B9  0.0907 KA relative to UGCAUGU
14. B6  0.0916 KA relative to UGCAUGU
15. B7  0.0942 KA relative to UGCAUGU
16. B5  0.102 KA relative to UGCAUGU
17. B23  0.106 KA relative to UGCAUGU
18. B27  0.109 KA relative to UGCAUGU
19. B10  0.112 KA relative to UGCAUGU
20. B14  0.112 KA relative to UGCAUGU
21. B13  0.116 KA relative to UGCAUGU
22. B19  0.118 KA relative to UGCAUGU
23. B12  0.121 KA relative to UGCAUGU
24. B29  0.131 KA relative to UGCAUGU
25. B22  0.14 KA relative to UGCAUGU
26. B20  0.164 KA relative to UGCAUGU
27. B1  0.175 KA relative to UGCAUGU
28. B3  0.178 KA relative to UGCAUGU
29. B2  0.179 KA relative to UGCAUGU
30. B31  0.188 KA relative to UGCAUGU
31. B25  0.268 KA relative to UGCAUGU
